Hit rate of the full screen: of about 110,000 compounds, about 230 (0.21%) showed an effect of 50% or more. This is one part of the list.
These compounds were tested against DPAP1 (Plasmodium falciparum, UniProt Q8IIJ9) (assay: primary screen, percent inhibition; read by cleavage of a fluorogenic dipeptide substrate; higher = more effect of the substance).
Parameters: species or system P. falciparum D10 trophozoite lysates; single well
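Further: 30 min substrate incubation versus DMSO and 10 µM JCP410 controls.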

Sequence of DPAP1 (Q8IIJ9 whole entry, looked up): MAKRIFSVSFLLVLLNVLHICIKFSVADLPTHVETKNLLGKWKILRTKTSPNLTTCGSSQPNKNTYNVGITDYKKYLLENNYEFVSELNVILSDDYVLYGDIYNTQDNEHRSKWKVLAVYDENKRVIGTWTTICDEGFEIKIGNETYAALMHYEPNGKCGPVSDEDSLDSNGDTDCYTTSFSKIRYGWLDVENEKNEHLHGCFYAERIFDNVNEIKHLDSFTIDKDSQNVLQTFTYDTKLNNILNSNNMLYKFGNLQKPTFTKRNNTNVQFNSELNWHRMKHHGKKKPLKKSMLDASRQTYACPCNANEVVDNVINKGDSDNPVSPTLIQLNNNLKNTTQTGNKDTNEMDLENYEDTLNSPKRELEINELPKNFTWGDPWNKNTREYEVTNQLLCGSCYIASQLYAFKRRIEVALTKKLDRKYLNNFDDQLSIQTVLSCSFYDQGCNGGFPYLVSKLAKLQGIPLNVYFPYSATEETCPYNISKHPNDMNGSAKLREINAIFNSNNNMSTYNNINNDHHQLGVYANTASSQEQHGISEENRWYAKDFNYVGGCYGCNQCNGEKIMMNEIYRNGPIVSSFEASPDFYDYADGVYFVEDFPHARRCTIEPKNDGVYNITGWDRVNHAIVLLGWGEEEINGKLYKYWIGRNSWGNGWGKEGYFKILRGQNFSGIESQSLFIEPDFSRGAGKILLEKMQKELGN

Question: CCCCC(=O)Nc1ccc(OCC)cc1 was tested. Which “% Inhibition @ 10 uM” value did it give?
Answer: The value was 2.5%.

Question: For COc1ccc(CCNC(=O)c2cn(C)c(=O)c3cc(OC)c(OC)cc23)cc1OC, which “% Inhibition @ 10 uM” value is on record?
Answer: Its value is -2.49%.

Question: How did the “% Inhibition @ 10 uM” value turn out when CCOC(=O)c1oc2ccccc2c1NC(=O)C1c2ccccc2Oc2ccccc21 was run?
Answer: Its value is -4.69%.

Question: For Cc1cc(NC(=O)CCCc2c[nH]c3ccccc23)no1, which “% Inhibition @ 10 uM” value is on record?
Answer: Its value is 1.88%.

Question: For Cc1ccc2[nH]c(SCC(=O)NC3CCCCC3)nc2c1, which “% Inhibition @ 10 uM” value is on record?
Answer: The value was 1.87%.

Question: With CC(=O)/N=C(\Nc1nc(C)cc(C)n1)Nc1ccc(Cl)cc1Cl as the compound, how does the “% Inhibition @ 10 uM” value read?
Answer: Its value is -5.66%.

Question: Which “% Inhibition @ 10 uM” value does the source give for Cc1ccccc1C(=O)Nc1cccc(-c2cn3ccsc3n2)c1 here?
Answer: The value was 3.05%.

Question: Which “% Inhibition @ 10 uM” value does the source give for CCOc1cc(CO)ccc1OCc1ccc(C(=O)O)cc1 here?
Answer: Its value is -1.43%.

Question: With CCOC(=O)c1cc2c(C)nc3ccc(OC)cc3c2o1 as the compound, how does the “% Inhibition @ 10 uM” value read?
Answer: The value was 1.08%.

Question: For Cc1ccc2nc(NC(=O)CCNS(=O)(=O)c3ccc4nc(O)ccc4c3)sc2c1, which “% Inhibition @ 10 uM” value is on record?
Answer: The value was 3.51%.

Question: With Cc1cc(Cl)ccc1OCCCC(=O)NC1=NCCS1 as the compound, how does the “% Inhibition @ 10 uM” value read?
Answer: Its value is -4.59%.

Question: How did the “% Inhibition @ 10 uM” value turn out when O=C(N1CCCCC1)C(O)(c1ccccc1)c1ccccc1 was run?
Answer: Its value is -0.687%.

Question: Which “% Inhibition @ 10 uM” value does the source give for COc1cc(/C=c2\sc3n(c2=O)CCCN=3)cc(OC)c1O here?
Answer: Its value is -1.29%.

Question: Which “% Inhibition @ 10 uM” value does the source give for Cc1nc2ccc(S(=O)(=O)N(C)CC(=O)NC3CCCc4ccccc43)cc2s1 (stereo not shown) here?
Answer: The value was -0.522%.

Question: CCOC(=O)c1c(C)[nH]c(C)c1S(=O)(=O)N(C)CC(=O)N1CCn2c1nc1ccccc12 was tested. Which “% Inhibition @ 10 uM” value did it give?
Answer: Its value is 0.706%.

Question: CC1(C)CC2=Nc3nn(-c4ccccc4)c(O)c3C(c3ccco3)C2=C(O)C1 (stereo not shown) was tested. Which “% Inhibition @ 10 uM” value did it give?
Answer: The value was -0.828%.

Question: With Cc1cc(C(F)(F)F)c(C#N)c(SCC(=O)c2ccccc2)n1 as the compound, how does the “% Inhibition @ 10 uM” value read?
Answer: The value was 1.4%.

Question: Which “% Inhibition @ 10 uM” value does the source give for CCOC(=O)c1c(NC(=O)COc2ccc3ccccc3c2)sc2c1CCCC2 here?
Answer: Its value is 3.66%.

Question: Which “% Inhibition @ 10 uM” value does the source give for CCOC(=O)C1CCCCN1CCCc1ccccc1 (stereo not shown) here?
Answer: Its value is -1.21%.

Question: How did the “% Inhibition @ 10 uM” value turn out when O=C(COc1ccc(Cl)cc1)Nc1cccnc1 was run?
Answer: Its value is -2.29%.

Question: How did the “% Inhibition @ 10 uM” value turn out when CCOc1cc(CN2CCCC2)ccc1OC was run?
Answer: Its value is -5.42%.

Question: Which “% Inhibition @ 10 uM” value does the source give for CCOc1ccc(CNCc2c(C(=O)O)n(Cc3ccc(F)cc3)c3cc(C)ccc23)cc1 here?
Answer: The value was -3.56%.

Question: Which “% Inhibition @ 10 uM” value does the source give for CN(CCCNC(=O)c1cc(S(=O)(=O)N2CCCCC2)c[nH]1)Cc1ccccc1 here?
Answer: Its value is 5.43%.

Question: How did the “% Inhibition @ 10 uM” value turn out when O=C(O)C1Sc2nc(O)sc2C2c3ccccc3OC(=O)C12 (stereo not shown) was run?
Answer: The value was 5.17%.

Question: How did the “% Inhibition @ 10 uM” value turn out when CCCNC(=O)c1ccc2c(c1)C(=O)N(Cc1ccco1)C2=O was run?
Answer: Its value is 4.01%.

Question: With COc1cccc2c1Oc1ncccc1N(c1ccc(C(=O)NCc3ccc4c(c3)OCO4)s1)C2 as the compound, how does the “% Inhibition @ 10 uM” value read?
Answer: Its value is -0.836%.

Question: How did the “% Inhibition @ 10 uM” value turn out when CCOc1ccccc1N(CC(=O)NC1CC2CCC1C2)S(=O)(=O)c1ccc(C)cc1 (stereo not shown) was run?
Answer: Its value is -2.54%.

Question: For COc1ccc(OC)c(-c2cc(C(=O)O)c3c(-c4ccc(Cl)cc4)[nH]nc3n2)c1, which “% Inhibition @ 10 uM” value is on record?
Answer: Its value is 3%.

Question: With COc1ccc(S(=O)(=O)Nc2ccc(S(=O)(=O)Nc3ccc(Cl)cc3)cc2)cc1C as the compound, how does the “% Inhibition @ 10 uM” value read?
Answer: The value was -4.62%.

Question: How did the “% Inhibition @ 10 uM” value turn out when N#Cc1cc2c(nc1S)CCCC2 was run?
Answer: The value was 32.9%.

Question: Cc1ccc(OCCOc2ccc(Oc3nc(N(C)C)nc(N(C)C)n3)nn2)cc1 was tested. Which “% Inhibition @ 10 uM” value did it give?
Answer: The value was 0.147%.

Question: With CN1C(C(=O)NC2CCCCC2)=CC(c2cccs2)=NS1(=O)=O as the compound, how does the “% Inhibition @ 10 uM” value read?
Answer: Its value is 0.655%.

Question: Which “% Inhibition @ 10 uM” value does the source give for CCOC(=O)C1CCCCN1Cc1cccc(C(F)(F)F)c1 (stereo not shown) here?
Answer: The value was -0.192%.

Question: Which “% Inhibition @ 10 uM” value does the source give for O=C1C2C3CCC(O3)C2C(=O)N1c1ccc2nc3ccccc3cc2c1 (stereo not shown) here?
Answer: The value was -0.999%.

Question: How did the “% Inhibition @ 10 uM” value turn out when CCOC(=O)C1CCCN(CC2CC=CCC2)C1 (stereo not shown) was run?
Answer: Its value is -5.42%.

Question: How did the “% Inhibition @ 10 uM” value turn out when C=Cn1ccnc1C(C(O)c1cc(OC)c(OC)c(OC)c1)N(C)C (stereo not shown) was run?
Answer: The value was -3.39%.

Question: How did the “% Inhibition @ 10 uM” value turn out when CC(=O)c1cccc(NS(=O)(=O)c2ccc(Oc3ccccc3Cl)cc2)c1 was run?
Answer: Its value is -3.87%.

Question: How did the “% Inhibition @ 10 uM” value turn out when CCN(C(=O)c1ccccc1OC)c1nc(-c2ccc(Br)cc2)cs1 was run?
Answer: Its value is 1.75%.

Question: Which “% Inhibition @ 10 uM” value does the source give for COc1ccc2c(CNC3CCCC(C)C3C)c(C(=O)O)n(Cc3ccc(F)cc3)c2c1 (stereo not shown) here?
Answer: The value was 8.58%.

Question: With CC(C)/N=C1\SC(CC(=O)Nc2ccc(Br)cc2)C(=O)N1C(C)C (stereo not shown) as the compound, how does the “% Inhibition @ 10 uM” value read?
Answer: The value was 3.86%.

Question: How did the “% Inhibition @ 10 uM” value turn out when CC(=O)c1nn(-c2cccc(Br)c2)cc1C(=O)c1ccco1 was run?
Answer: Its value is -1.89%.

Question: How did the “% Inhibition @ 10 uM” value turn out when O=C(O)c1ccc(S(=O)(=O)c2ccc3c(c2)C(=O)N(c2ccccn2)C3=O)cc1 was run?
Answer: The value was -2.63%.

Question: COc1ccc(OC)c(C2C(C#N)=C(N)Oc3cc(C)n(CCN(C)C)c(=O)c32)c1 (stereo not shown) was tested. Which “% Inhibition @ 10 uM” value did it give?
Answer: Its value is -1.11%.

Question: Cc1ccc(S(=O)(=O)C(F)(F)F)cc1[N+](=O)[O-] was tested. Which “% Inhibition @ 10 uM” value did it give?
Answer: Its value is -0.833%.

Question: How did the “% Inhibition @ 10 uM” value turn out when Cc1cc(C)c2nc(N3CCC(C(=O)NCc4ccc(OC(C)C)cc4)CC3)sc2c1 was run?
Answer: The value was 0.0882%.

Question: With CCSc1cnn(-c2ccccc2)c(=O)c1SCC as the compound, how does the “% Inhibition @ 10 uM” value read?
Answer: Its value is 0.135%.

Question: With CCN(CC)C1=N/C(=C\c2ccccc2)C(=O)N1c1ccc(C)cc1 as the compound, how does the “% Inhibition @ 10 uM” value read?
Answer: Its value is 2.22%.

Question: How did the “% Inhibition @ 10 uM” value turn out when C#CCNc1nnc(C)c2nnn(Cc3ccccc3Cl)c12 was run?
Answer: The value was 6.34%.

Question: COc1ccc(C2NC(=O)NC(C)=C2C(=O)Nc2cccc(C)c2C)cc1 (stereo not shown) was tested. Which “% Inhibition @ 10 uM” value did it give?
Answer: Its value is -6.25%.

Source: article PMC6919601, “Identification of Plasmodium dipeptidyl aminopeptidase allosteric inhibitors by high throughput screening” (PLoS ONE, 2019)
